{
  "source": "the antibiotic and cytotoxicity screens of Wong et al. (2023)",
  "note": "Some of the results follow.",
  "data": [
    {"tested_on": "HepG2", "assay": "cytotoxicity call (relative viability < 0.9)", "settings": "10 µM", "values": [
      {"molecule": "Cc1noc(C)c1NC(=O)Nc1ccc2c(c1)C(=O)N([C@@H](C)CO)C[C@@H](C)[C@H](CN(C)Cc1ccc3c(c1)OCO3)OCCCC[C@@H](C)O2", "cytotoxicity call": "inactive"},
      {"molecule": "Cc1noc(C)c1S(=O)(=O)N(C)C[C@@H]1Oc2ccc(NC(=O)C3CCCCC3)cc2CC(=O)N([C@H](C)CO)C[C@H]1C", "cytotoxicity call": "inactive"},
      {"molecule": "C[C@H](CO)N1C[C@H](C)[C@@H](CN(C)C(=O)Nc2ccccc2)OCCCC[C@H](C)Oc2ccc(NC(=O)Cc3ccccc3)cc2C1=O", "cytotoxicity call": "inactive"},
      {"molecule": "Cc1ccc(S(=O)(=O)Nc2cccc3c2O[C@@H](CN(C)C(=O)Nc2cccc4ccccc24)[C@@H](C)CN([C@H](C)CO)C3=O)cc1", "cytotoxicity call": "inactive"},
      {"molecule": "C[C@@H]1CCCCO[C@H](CN(C)C(=O)Nc2ccccc2)[C@H](C)CN([C@H](C)CO)C(=O)c2cc(NC(=O)NC3CCCCC3)ccc2O1", "cytotoxicity call": "inactive"},
      {"molecule": "CN1N=C(N)c2cn([C@@H]3O[C@H](COP(=O)(O)O)[C@@H](O)[C@H]3O)c3ncnc1c23", "cytotoxicity call": "inactive"},
      {"molecule": "C[C@H](CO)N1C[C@H](C)[C@H](CN(C)C(=O)Nc2ccc3c(c2)OCO3)Oc2c(NC(=O)C3CC3)cccc2C1=O", "cytotoxicity call": "inactive"},
      {"molecule": "CCCCOc1cc(C(=O)OCCN(CC)CC)ccc1N.Cl", "cytotoxicity call": "inactive"},
      {"molecule": "C[C@H](CO)N1C[C@H](C)[C@H](CN(C)C(=O)Nc2ccc(F)cc2)Oc2ccc(NC(=O)CCCCCC(=O)Nc3ccccc3N)cc2C1=O", "cytotoxicity call": "inactive"},
      {"molecule": "Cc1ccc(S(=O)(=O)Nc2cccc3c2O[C@H](CN(C)C(=O)Nc2ccc(C(F)(F)F)cc2)[C@@H](C)CN([C@@H](C)CO)C3=O)cc1", "cytotoxicity call": "inactive"},
      {"molecule": "O=C(CCCCC(=O)N/N=C/[C@H](O)[C@@H](O)[C@H](O)[C@H](O)CO[C@H]1O[C@H](CO)[C@H](O)[C@H](O)[C@H]1O)NO", "cytotoxicity call": "inactive"},
      {"molecule": "c1ccc([C@@H]2CNCCN2)cc1", "cytotoxicity call": "inactive"},
      {"molecule": "CC(=O)N(C)C[C@@H]1Oc2ncc(C#CC(C)(C)O)cc2C(=O)N([C@H](C)CO)C[C@@H]1C", "cytotoxicity call": "inactive"},
      {"molecule": "O=C(O)Cc1cc(I)c(Oc2ccc(O)c(I)c2)c(I)c1", "cytotoxicity call": "inactive"},
      {"molecule": "C[C@@H]1CCCCO[C@@H](CN(C)Cc2ccc(C(=O)Nc3ccccc3N)cc2)[C@@H](C)CN([C@H](C)CO)C(=O)c2cc(NC(=O)NC3CCCCC3)ccc2O1", "cytotoxicity call": "inactive"},
      {"molecule": "CCOc1ccc(C(=O)Nc2ccc(N3CCN(C(=O)c4cccs4)CC3)c(Cl)c2)cc1Br", "cytotoxicity call": "inactive"},
      {"molecule": "C[C@@H]1CN([C@@H](C)CO)C(=O)Cc2cc(NS(=O)(=O)c3ccccc3)ccc2O[C@H]1CN(C)S(C)(=O)=O", "cytotoxicity call": "inactive"},
      {"molecule": "COCC(=O)N(C)C[C@@H]1Oc2cc(C#CCN(C)C)ccc2S(=O)(=O)N([C@@H](C)CO)C[C@@H]1C", "cytotoxicity call": "inactive"},
      {"molecule": "C[C@H](CO)N1C[C@H](C)[C@H](CN(C)C(=O)c2ccncc2)Oc2cc(-c3cccc(C#N)c3)ccc2S1(=O)=O", "cytotoxicity call": "inactive"},
      {"molecule": "O=C(C[C@@H]1CC[C@@H]2[C@H](COC[C@@H](O)CN2Cc2cccc(C(F)(F)F)c2)O1)NCCc1ccncc1", "cytotoxicity call": "inactive"},
      {"molecule": "C[C@@H]1CN([C@H](C)CO)C(=O)c2cccc(NC(=O)C3CCCCC3)c2O[C@@H]1CN(C)C(=O)Nc1ccc(C(F)(F)F)cc1", "cytotoxicity call": "inactive"},
      {"molecule": "C=CCN(CCCC)C(=O)[C@H]1N(C(C)(C)CO)C(=O)[C@H]2[C@H](C(=O)O)[C@@H]3C=C[C@@]21O3", "cytotoxicity call": "inactive"},
      {"molecule": "O=C(CCCCCCC(=O)Nc1ccc([C@H]2O[C@@H](COc3ccccc3)C[C@H](c3ccccc3)O2)cc1)NO", "cytotoxicity call": "inactive"},
      {"molecule": "CC(=O)O[C@@H]1[C@H]2OC(C)(C)O[C@H]2O[C@@H]1[C@@H](O)CO", "cytotoxicity call": "inactive"},
      {"molecule": "C[C@H](CO)N1C[C@H](C)[C@H](CN(C)C(=O)NC2CCCCC2)Oc2ccc(NC(=O)Nc3ccc(C(F)(F)F)cc3)cc2C1=O", "cytotoxicity call": "inactive"},
      {"molecule": "O=C(O)[C@@H]1CCCCO1", "cytotoxicity call": "inactive"},
      {"molecule": "COc1ccc(S(=O)(=O)Nc2ccc3c(c2)CC(=O)N([C@@H](C)CO)C[C@H](C)[C@H](CN(C)Cc2ccc(Cl)c(Cl)c2)O3)cc1", "cytotoxicity call": "active"},
      {"molecule": "COc1ccc2c(c1)OCc1c-2oc2cc(OC)ccc12", "cytotoxicity call": "inactive"},
      {"molecule": "C[C@@H]1CN([C@H](C)CO)C(=O)Cc2cc(NS(=O)(=O)c3cccs3)ccc2O[C@H]1CN(C)Cc1ccc(Oc2ccccc2)cc1", "cytotoxicity call": "active"},
      {"molecule": "C[C@H]1CN([C@@H](C)CO)C(=O)c2cc(NS(=O)(=O)c3cn(C)cn3)ccc2O[C@H]1CN(C)S(=O)(=O)c1cn(C)cn1", "cytotoxicity call": "inactive"},
      {"molecule": "C[C@H](CO)N1C[C@H](C)[C@H](CN(C)C(=O)Nc2ccc(C(F)(F)F)cc2)OCCCC[C@H](C)Oc2ccc(NS(C)(=O)=O)cc2C1=O", "cytotoxicity call": "inactive"}
    ]}
  ]
}
